Results from the supplement of paper PMC5499739.
In all, about 16,000 sequences were measured (“Z-score”: median about -0.37, highest 2% from about 3.1 on). The list shows a part of the results.

test system: RBM10 RRM1-ZnF-RRM2 (GST-tagged construct); experiment: RNAcompete 7-mer binding Z-score; higher = stronger binding preference
Method in brief: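 In 1 ml Hepes pH 7.8 buffer with KCl, NaCl, glycerol, DTT, BSA and glutathione Sepharose beads, GST-tagged RBM10 constructs (20 pmol) were incubated for 30 min at 4°C with 1.5 nmol of a designed pool of 241 399 RNAs up to 41 nt. Four 2-min washes at 4°C followed, and bound RNA was detected by microarray hybridisation. Heptamer motif enrichment was expressed as a one-sided Z-score across probes containing each motif.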

Row | Sequence | RNAcompete 7-mer binding Z-score
1 | GUCGCAU | -0.202
2 | AUAGUCC | -0.624
3 | GGAUCUU | -0.289
4 | CAAAGGC | 0.345
5 | ACGAGUG | 0.956
6 | ACAGAUC | -0.508
7 | CUGAGCG | 0.268
8 | UCUGUUC | -0.795
9 | UAGACCU | -0.741
10 | CGAUACC | -0.457
11 | GACCGCU | -0.919
12 | UCAAUUC | -0.752
13 | CUGGUAG | 0.232
14 | UAACGAC | -0.602
15 | AGAUCGC | -0.719
16 | UUUACAG | -0.482
17 | CUUAACC | -0.865
18 | AUCGAGC | -0.449
19 | AAUUUUG | -0.766
20 | UGGGAGC | 2.67
21 | CCAGGCG | 0.195
22 | GCGGCUU | -0.511
23 | CGCAAUC | -0.628

Row | Sequence | RNAcompete 7-mer binding Z-score
24 | AUGUUUG | -0.0634
25 | UUGACAA | -0.486
26 | GAAAGAC | 0.137
27 | ACGUAAU | -0.417
28 | UUAUAAU | -0.471
29 | CAACCAC | -0.577
30 | CAAGGCC | -0.235
31 | UGACCUG | -0.694
32 | ACUUCGA | -0.719
33 | CUUUCCG | -0.777
34 | AGUAUAG | 0.807
35 | UAAUUUA | -0.723
36 | GCUUAAG | -0.439
37 | CAUCUUG | -0.872
38 | AUCCGAU | -0.53
39 | CUUGAGC | -0.978
40 | AGCAUAC | -0.34
41 | ACAGUUG | 0.075
42 | UUCGGGU | 0.964
43 | UCGAUCU | -0.653
44 | CCUUUCU | -0.872
45 | GGUCCAU | -0.315
46 | AUUGAAU | 0.0604

Row | Sequence | RNAcompete 7-mer binding Z-score
47 | CGGAGGA | 1.75
48 | AACCGGC | -0.428
49 | UCGCGCA | -0.595
50 | GGUGCCA | 0.785
51 | GCAGUUA | -0.0853
52 | CGGGUUC | 0.778
53 | AAGAGGG | 3.05
54 | CGGCGAA | 0.676
55 | UGGGGAC | 2.28
56 | UAAUUCG | -0.431
57 | CGUCGCA | -0.541
58 | GAUUCUC | -0.628
59 | GUUAACU | -0.398
60 | AUGGACG | 2.6
61 | GAUGGCC | 0.0604
62 | AGAAAUG | 1.32
63 | AGAGAUC | -0.413
64 | GUCAACC | -0.544
65 | GUCAUCU | -0.719
66 | UAGACUC | -0.726
67 | CUUACCG | -0.726
68 | UGCGCGU | -0.227
69 | GAAAUAA | -0.231

Row | Sequence | RNAcompete 7-mer binding Z-score
70 | UCCUAUC | -0.85
71 | UCAGCCA | -0.613
72 | UAAGGUU | 1.74
73 | UAGUAAA | -0.067
74 | UUGGUUU | 0.337
75 | CAGGCGC | -0.111
76 | CGUAGCC | -0.508
77 | UUUUGAA | -0.537
78 | UAAUUUG | -0.417
79 | CGGAGUC | 0.101
80 | CACGUAA | -0.318
81 | UUCCAUA | -0.624
82 | CCAGGGU | 1.18
83 | UGAUAAG | 0.101
84 | UUUUAAG | -0.566
85 | CUUAUGG | -0.282
86 | GACACGU | -0.435
87 | AGGUCUA | -0.195
88 | GUGGAAC | 1.73
89 | AAUAUCG | -0.355
90 | GUCGGGG | 2.62
91 | UUCCUGA | -0.763
92 | ACAUUGG | 0.873

Row | Sequence | RNAcompete 7-mer binding Z-score
93 | CAGCGAU | -0.173
94 | AUUCUUA | -0.734
95 | UCCAGCU | -0.908
96 | ACGAGCU | -0.417
97 | GGACAUA | 0.745
98 | UGGGGGC | 3.18
99 | UUAGAAC | -0.417
100 | UCACUGA | -0.504
101 | AUUCCCA | -0.73
102 | GCAUAAC | -0.107
103 | AUUCAUC | -0.664
104 | GGGUGCG | 2.85
105 | AAAACGU | -0.0197
106 | GUCAGAG | 0.406
107 | AGUGGGG | 4.66
108 | UGGCCUC | -0.748
109 | AUCCACA | -0.675
110 | UUCACGC | -0.868
111 | CAACCUG | -0.785
112 | GUAUAUA | -0.0379
113 | AGUAAUU | -0.402
114 | UCGUAGC | -0.519
115 | CAGUACC | -0.329

Row | Sequence | RNAcompete 7-mer binding Z-score
116 | GAUGCCC | -0.592
117 | GCUUAGC | -0.566
118 | GAUUCUU | -0.661
119 | GCGGGGG | 3.51
120 | CCGAACC | -0.861
121 | CGCUAAA | -0.694
122 | CAUAAUU | -0.872
123 | UGAGAUU | -0.0853
124 | CACGGGA | 1.66
125 | AACUGAC | -0.61
126 | AAACAAU | -0.0598
127 | CGUUACC | -0.617
128 | UUCUGAG | -0.588
129 | UAACUUU | -0.774
130 | CAAACCA | -0.599
131 | UUACGAC | -0.533
132 | AAACCAG | 0.188
133 | GUUUAGG | 1.16
134 | UGACCAU | -0.515
135 | UAUGUUA | -0.435
136 | GGCUGAC | -0.0343
137 | UCACACA | -0.548
138 | CACCGUG | -0.318

Row | Sequence | RNAcompete 7-mer binding Z-score
139 | UCAAUUG | -0.384
140 | CGUACAU | -0.373
141 | CCGUUGG | 0.228
142 | UCCACUG | -0.606
143 | GUCAAGU | -0.0925
144 | GUGGUUG | 2.15
145 | GGAUUUU | -0.165
146 | AACGCUG | -0.442
147 | UAUUUGU | -0.657
148 | GCGAACC | -0.289
149 | GGCGCAA | 0.497
150 | AUUUGCG | -0.653
151 | CUGAUCC | -0.836
152 | UGCAUCG | -0.42
153 | CGUUGCC | -0.653
154 | GGCAACA | 0.698
155 | CAACUUA | -0.708
156 | CAUGGCA | 0.286
157 | CAAUAGG | 1.3
158 | ACCCGAC | -0.759
159 | GCCUUAC | -0.81
160 | CAUGGUG | 1.13
161 | CUGAUAU | -0.741

Row | Sequence | RNAcompete 7-mer binding Z-score
162 | UGAGUCU | -0.144
163 | GCUCGCA | -0.373
164 | CUUCGCG | -0.777
165 | GGGUAGU | 3.17
166 | ACGUCCG | -0.777
167 | GGGUUCA | 1.32
168 | AAACUCG | -0.825
169 | UUCGCGG | -0.111
170 | AUCGGCU | -0.683
171 | GAACGUA | 0.374
172 | GGCGGAG | 2.84
173 | AGAAAAC | -0.114
174 | UCUUAAA | -0.763
175 | UCUUUGG | -0.464
176 | CUUGUUC | -1.01
177 | AGACCUA | -1.07
178 | UUUUUAU | -0.624
179 | GCCGGAC | -0.282
180 | UUCGUGU | -0.544
181 | AUUCCUC | -0.832
182 | AGAUUUA | -0.253
183 | GGCCUAU | -0.588
184 | AGCCGAA | -0.795
